Residue numbers refer to the chain shown, from its start. Numbers in names are those of the source. These are yes or no findings as the source states them, for the method shown. Some entries that bind do so weakly or less than the wild type. Tags and fused reporters may be left off the sequences shown.

Amino acid sequences for entries named in this document (tags omitted).
UniProt P59215: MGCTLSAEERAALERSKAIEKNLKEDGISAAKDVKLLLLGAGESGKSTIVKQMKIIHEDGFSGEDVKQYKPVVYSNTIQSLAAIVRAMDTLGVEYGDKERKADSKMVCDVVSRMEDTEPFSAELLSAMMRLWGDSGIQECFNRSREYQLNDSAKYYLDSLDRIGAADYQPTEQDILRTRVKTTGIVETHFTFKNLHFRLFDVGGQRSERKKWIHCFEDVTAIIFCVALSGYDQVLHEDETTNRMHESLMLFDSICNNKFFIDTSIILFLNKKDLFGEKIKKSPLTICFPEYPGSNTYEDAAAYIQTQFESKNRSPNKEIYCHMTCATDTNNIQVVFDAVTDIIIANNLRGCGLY
UniProt P08753: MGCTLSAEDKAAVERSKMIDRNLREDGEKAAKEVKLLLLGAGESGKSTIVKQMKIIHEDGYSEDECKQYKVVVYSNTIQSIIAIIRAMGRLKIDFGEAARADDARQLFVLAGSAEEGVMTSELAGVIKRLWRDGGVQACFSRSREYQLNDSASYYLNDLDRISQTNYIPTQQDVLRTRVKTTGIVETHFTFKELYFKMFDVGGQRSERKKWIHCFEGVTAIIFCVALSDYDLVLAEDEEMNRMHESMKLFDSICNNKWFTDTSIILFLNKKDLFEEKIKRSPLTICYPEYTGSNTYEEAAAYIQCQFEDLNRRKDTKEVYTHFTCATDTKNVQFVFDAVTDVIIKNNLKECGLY

Test [1] has as its target GST-Gαo (rat) (UniProt P59215). Briefly: pull-down; GST-Gα protein (5 µg) preloaded with GDP (inactive) on glutathione beads; purified His-Daple-CT (3 µg); 4 hr at 4°C; 50 mM Tris-HCl pH 7.4, 100 mM NaCl, 0.4% NP-40, 10 mM MgCl2, 5 mM EDTA, 30 µM GDP, 2 mM DTT; immunoblot; both purified.
The target of test [2] is GST-Gαi3 (rat) (UniProt P08753). Briefly: condition: only GST-Gαi3 loaded with GTPγS (active); pull-down; as a2, but GST-Gαi3 preloaded with 30 µM GTPγS (active); both purified.
The target is the same in test [3]. Briefly: condition: only GST-Gαi3 loaded with GDP/AlF4- (active); pull-down; as a2, but GST-Gαi3 preloaded with 30 µM GDP/30 µM AlCl3/10 mM NaF (GDP + AlF4-, active); both purified.
The target is the same in test [4]. Briefly: pull-down; GST-Gα protein (5 µg) preloaded with GDP (inactive) on glutathione beads; purified His-Daple-CT (3 µg); 4 hr at 4°C; 50 mM Tris-HCl pH 7.4, 100 mM NaCl, 0.4% NP-40, 10 mM MgCl2, 5 mM EDTA, 30 µM GDP, 2 mM DTT; immunoblot; both purified.
For test [5] the target is unchanged. Briefly: pull-down; competition: GST-Gαi3 preloaded with GDP on glutathione-agarose beads (∼0.3 mM as printed) with a fixed concentration (∼0.2 mM as printed) of His-Daple-CT and increasing KB-752 or His-GIV-CT; anti-His immunoblot; both purified. For orientation: In western blotting, separated proteins are transferred to a membrane and probed.

B1: His-Daple-CT (aa 1650–2028) (domain or fragment, UniProt Q9P219-1 1650-2028)
chain: GTAPPYVGVRPCSASPSSEMVTLEEFLEESNRSSPTHDTPSCRDDLLSDYFRKASDPPAIGGQPGPPAKKEGAKMPTNFVAPTVKMAAPTSEGRPLKPGQYVKPNFRLTEAEAPPSVAPRQAQPPQSLSLGRPRQAPVPPASHAPASRSASLSRAFSLASADLLRASGPEACKQESPQKLGAPEALGGRETGSHTLQSPAPPSSHSLARERTPLVGKAGSSCQGPGPRSRPLDTRRFSLAPPKEERLAPLHQSATAPAIATAGAGAAAAGSGSNSQLLHFSPAAAPAARTKPKAPPRSGEVATITPVRAGLSLSEGDGVPGQGCSEGLPAKSPGRSPDLAPHLGRALEDCSRGSVSKSSPASPEPGGDPQTVWYEYGCV
As for B1, the binding entry in test [1], in test [2] and in test [3] was “no binding” in each case.

B2: His-Daple-CT F1675A (aa 1650–2028) (domain or fragment, UniProt Q9P219-1 1650-2028)
chain: B1 chain with F26A
As for B2, in test [4], the binding entry is listed as “no binding”.

B3: His-GIV-CT (aa 1660–1870) (domain or fragment, UniProt Q3V6T2 1660-1870)
chain: ISETLESRHHKIKTGSPGSEVVTLQQFLEESNKLTSVQIKSSSQENLLDEVMKSLSVSSDFLGKDKPVSCGLARSVSGKTPGDFYDRRTTKPEFLRPGPRKTEDTYFISSAGKPTPGTQGKIKLVKESSLSRQSKDSNPYATLPRASSVISTAEGTTRRTSIHDFLTKDSRLPISVDSPPAAADSNTTAASNVDKVQESRNSKSRSREQQS
Regarding B3, in test [5], the binding entry was “binds”.
